# The list shows a part of the results.
# B1: SP8524D-bot-399-27-399 (Bacteroides ovatus) (protein)
# chain: DAKYDTLDTHAYIEEALSSTSQKVTVQATGESFTTLNVHLSNLSSTDNHYKLVTDQSVLDTYNHINGTGYIMLPKDYYTLPETITVKAGQYAADALSIALKAFSQEMMKSGESYALPVKLVLQDGSISPMENTGTFVILAESIIEFSAPMFVGAPSLKANKFTESPETYSQYTIEVRFQVANTADRDRAVFKNGGDDANFILLRFEDPQSDNENYKAHSLVQIVGRNRLYLNPSNSFKPNEWQHLALVCDGSNYRLYINGVDSGVLSIPTGATTFSDVNWFCLGDDSYSRWGNCKILMSEARIWSVVRSASQIQNNMTQVSPKSVGLEAYWRFNEGQGNVFEDATGKGHTLTTSATPTWIDGILSTDKSTEWK
# Key:
# Assay in all cases: glycan array binding signal (z-score within array); higher = stronger binding
# Settings in all cases: glycan notation: IUPAC condensed, linker removed
# [1] = target: GlcNAc(b1-3)Gal(b1-4)GlcNAc(b1-3)Gal(b1-4)GlcNAc(b1-3)GalNAc
# In short: (§1)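 Glycan array data were curated from 3228 arrays in the Consortium for Functional Glycomics database and kept only where the protein sequence was available. Glycan names were converted to IUPAC-condensed notation, and columns mapping to the same glycan were averaged. The binding signal is a within-array Z-score, averaged across arrays of the same protein sequence at different concentrations or buffers and across linkers. Negative Z-scores can be read as non-binding.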
# [2] = target: GlcNAc(b1-3)Gal(b1-4)GlcNAc(b1-3)GalNAc
# In short: as §1
# [3] = target: GlcNAc(b1-3)Gal(b1-4)GlcNAc(b1-3)[GlcNAc(b1-3)Gal(b1-4)GlcNAc(b1-3)]GalNAc
# In short: as §1
# [4] = target: GlcNAc(b1-3)Gal(b1-4)GlcNAc(b1-6)[Gal(b1-3)]GalNAc
# In short: as §1
# [5] = target: GlcNAc(b1-3)Gal(b1-4)GlcNAc(b1-6)[GlcNAc(b1-3)Gal(b1-3)]GalNAc
# In short: as §1
# [6] = target: GlcNAc(b1-3)Gal(b1-4)GlcNAc(b1-6)[GlcNAc(b1-3)]Gal(b1-4)GlcNAc
# In short: as §1
# GlcNAc(b1-3)GalNAc = target: GlcNAc(b1-3)GalNAc
# In short: as §1
# GlcNAc(b1-3)Man = target: GlcNAc(b1-3)Man
# In short: as §1
# [7] = target: GlcNAc(b1-3)[GlcNAc(b1-4)][GlcNAc(b1-6)]GlcNAc
# In short: as §1
# [8] = target: GlcNAc(b1-3)[GlcNAc(b1-6)]Gal(b1-4)GlcNAc
# In short: as §1
# [9] = target: GlcNAc(b1-3)[GlcNAc(b1-6)]GalNAc
# In short: as §1
# [10] = target: GlcNAc(b1-4)Gal(b1-4)GlcNAc
# In short: as §1
# GlcNAc(b1-4)GlcNAc = target: GlcNAc(b1-4)GlcNAc
# In short: as §1
# [11] = target: GlcNAc(b1-4)GlcNAc(b1-4)GlcNAc
# In short: as §1
# [12] = target: GlcNAc(b1-4)GlcNAc(b1-4)GlcNAc(b1-4)GlcNAc(b1-4)GlcNAc
# In short: as §1
# [13] = target: GlcNAc(b1-4)GlcNAc(b1-4)GlcNAc(b1-4)GlcNAc(b1-4)GlcNAc(b1-4)GlcNAc
# In short: as §1
# [14] = target: GlcNAc(b1-4)[GlcNAc(b1-6)]GalNAc
# In short: as §1
# [15] = target: GlcNAc(b1-6)Gal(b1-4)GlcNAc
# In short: as §1
# GlcNAc(b1-6)GalNAc = target: GlcNAc(b1-6)GalNAc
# In short: as §1
# [16] = target: GlcNAc6S(b1-3)Gal(b1-4)GlcNAc
# In short: as §1
# Kdn(a2-3)Gal(b1-3)GalNAc = target: Kdn(a2-3)Gal(b1-3)GalNAc
# In short: as §1
# Kdn(a2-3)Gal(b1-3)GlcNAc = target: Kdn(a2-3)Gal(b1-3)GlcNAc
# In short: as §1
# Kdn(a2-3)Gal(b1-4)Glc = target: Kdn(a2-3)Gal(b1-4)Glc
# In short: as §1
# Kdn(a2-3)Gal(b1-4)GlcNAc = target: Kdn(a2-3)Gal(b1-4)GlcNAc
# In short: as §1
# [17] = target: Kdn(a2-3)Gal(b1-4)[Fuc(a1-3)]GlcNAc
# In short: as §1
# Kdn(a2-6)Gal(b1-4)GlcNAc = target: Kdn(a2-6)Gal(b1-4)GlcNAc
# In short: as §1
# [18] = target: Man(a1-2)Man(a1-2)Man(a1-3)Man
# In short: as §1
# [19] = target: Man(a1-2)Man(a1-2)Man(a1-6)[Man(a1-3)]Man
# In short: as §1
# Man(a1-2)Man(a1-3)Man = target: Man(a1-2)Man(a1-3)Man
# In short: as §1
# [20] = target: Man(a1-2)Man(a1-3)[Man(a1-2)Man(a1-6)]Man
# In short: as §1
# [21] = target: Man(a1-2)Man(a1-3)[Man(a1-2)Man(a1-6)]Man(a1-6)[Man(a1-2)Man(a1-2)Man(a1-3)]Man
# In short: as §1
# [22] = target: Man(a1-2)Man(a1-3)[Man(a1-2)Man(a1-6)]Man(a1-6)[Man(a1-2)Man(a1-2)Man(a1-3)]Man(b1-4)GlcNAc(b1-4)GlcNAc
# In short: as §1
# [23] = target: Man(a1-2)Man(a1-3)[Man(a1-6)]Man(a1-6)[Man(a1-2)Man(a1-3)]Man(b1-4)GlcNAc(b1-4)GlcNAc
# In short: as §1
# [24] = target: Man(a1-2)Man(a1-6)[Man(a1-3)]Man(a1-6)[Man(a1-2)Man(a1-2)Man(a1-3)]Man
# In short: as §1
# [25] = target: Man(a1-2)Man(a1-6)[Man(a1-3)]Man(a1-6)[Man(a1-2)Man(a1-2)Man(a1-3)]Man(b1-4)GlcNAc(b1-4)GlcNAc
# In short: as §1
# Man(a1-3)[Man(a1-6)]Man = target: Man(a1-3)[Man(a1-6)]Man
# In short: as §1
# [26] = target: Man(a1-3)[Man(a1-6)]Man(a1-6)[Man(a1-2)Man(a1-3)]Man(b1-4)GlcNAc(b1-4)GlcNAc
# In short: as §1
binder,measurement,setting,value
B1,glycan array binding signal (z-score),[1],0.147
same,glycan array binding signal (z-score),[2],-0.271
same,glycan array binding signal (z-score),[3],-0.049
same,glycan array binding signal (z-score),[4],-0.128
same,glycan array binding signal (z-score),[5],-0.404
same,glycan array binding signal (z-score),[6],-0.127
same,glycan array binding signal (z-score),GlcNAc(b1-3)GalNAc,-0.115
same,glycan array binding signal (z-score),GlcNAc(b1-3)Man,-0.269
same,glycan array binding signal (z-score),[7],0.26
same,glycan array binding signal (z-score),[8],-0.369
same,glycan array binding signal (z-score),[9],0.154
same,glycan array binding signal (z-score),[10],-0.294
same,glycan array binding signal (z-score),GlcNAc(b1-4)GlcNAc,-0.423
same,glycan array binding signal (z-score),[11],-0.187
same,glycan array binding signal (z-score),[12],-0.202
same,glycan array binding signal (z-score),[13],0.093
same,glycan array binding signal (z-score),[14],0.225
same,glycan array binding signal (z-score),[15],0.153
same,glycan array binding signal (z-score),GlcNAc(b1-6)GalNAc,-0.136
same,glycan array binding signal (z-score),[16],0.154
same,glycan array binding signal (z-score),Kdn(a2-3)Gal(b1-3)GalNAc,-0.019
same,glycan array binding signal (z-score),Kdn(a2-3)Gal(b1-3)GlcNAc,-0.198
same,glycan array binding signal (z-score),Kdn(a2-3)Gal(b1-4)Glc,-0.253
same,glycan array binding signal (z-score),Kdn(a2-3)Gal(b1-4)GlcNAc,0.347
same,glycan array binding signal (z-score),[17],0.119
same,glycan array binding signal (z-score),Kdn(a2-6)Gal(b1-4)GlcNAc,0.257
same,glycan array binding signal (z-score),[18],-0.375
same,glycan array binding signal (z-score),[19],-0.327
same,glycan array binding signal (z-score),Man(a1-2)Man(a1-3)Man,-0.1
same,glycan array binding signal (z-score),[20],-0.388
same,glycan array binding signal (z-score),[21],0.077
same,glycan array binding signal (z-score),[22],0.342
same,glycan array binding signal (z-score),[23],-0.243
same,glycan array binding signal (z-score),[24],-0.455
same,glycan array binding signal (z-score),[25],-0.312
same,glycan array binding signal (z-score),Man(a1-3)[Man(a1-6)]Man,-0.116
same,glycan array binding signal (z-score),[26],-0.169
